Key:
[1] = molecular target: T1, human CSF1R expressed on cells (293F/huCSF1R stable cells; AML5 cells; human monocytes and macrophages) (human, UniProt P07333 20-972); assay: cell-based or functional assay
[2] = molecular target: T1, human CSF1R expressed on cells …; assay: cell-based or functional assay; remark: listed apart in the source
[3] = molecular target: T2, recombinant human CSF1R-Fc fusion protein (human, UniProt P07333 in part); assay: ELISA, coated human CSF1R-Fc
T2 construct: probably the same protein; also called CSF1R-Fc (dimer); not shown: Fc part
Experimental: Materials and methods: Recombinant human CSF1R-Fc, or mouse CSF1R-Fc (Sino Biological) were immobilized on 96 well microtiter plate at a concentration of 1 μg/mL in Coating Solution (SeraCare) overnight at 4° C. The wells were washed with wash solution (0.05% Tween20 in imidazole-buffered saline) and blocked with 1% BSA. Serial dilutions of the anti-CSF1R/IL-10 fusion proteins were added to wells. After incubation at 3TC for 1 h, the wells were washed with wash solution. To detect chimeric Ab/IL10 fusions, peroxidase-conjugated goat anti-human kappa light chain antibody (Bethyl) was applied to each well at 3TC for 1 h incubation. To detect AB98 or AB98/1110 fusions, peroxidase-conjugated Goat anti-mouse IgG Fab antibody (Jackson immunoresearch) was applied to each well at 3TC for 1 h incubation. After washing, the wells were developed with TMB substrate for 5-10 min at RT and then stopped with 1 N HCl. Thereafter absorbance was measured at 450 nm and 650 nm.

[4] = molecular target: T3, recombinant human IL-10Ra fusion protein (R&D Systems) (human, UniProt Q13651 22-235); assay: ELISA, coated human IL-10Ra fusion protein
T3 sequence (looked up): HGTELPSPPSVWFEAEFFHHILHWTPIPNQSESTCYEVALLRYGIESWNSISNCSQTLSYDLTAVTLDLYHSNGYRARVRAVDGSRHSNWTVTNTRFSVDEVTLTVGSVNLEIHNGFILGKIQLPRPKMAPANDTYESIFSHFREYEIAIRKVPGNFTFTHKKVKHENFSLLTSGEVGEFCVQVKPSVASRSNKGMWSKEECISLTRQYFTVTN
Experimental: Materials and methods: Recombinant human IL-10Ra fusion protein (R&D Systems) were immobilized on 96 well microtiter plate at a concentration of 1 μg/ml in Coating Solution (SeraCare) overnight at 4° C. The wells were washed with wash solution (0.05% Tween20 in imidazole-buffered saline) and blocked with 1% BSA. Serial dilutions of Ab/IL-10 fusion proteins were added to wells. After incubation at 37° C. for lhr, the wells were washed with wash solution. Peroxidase-conjugated goat anti-human kappa light chain antibody (Bethyl) was applied to each well at 37° C. for 1 hr incubation. After washing, the wells were developed with TMB substrate for 5-10 min at RT and then stopped with 1 N HCl. Thereafter absorbance was measured at 450 nm and 650 nm. The EC50 value was calculated through GraphPad Prism7.

[5] = molecular target: T2, recombinant human CSF1R-Fc fusion …; assay: competition ELISA, coated human CSF1R-Fc, competitor biotinylated human CSF1-His 2.5 ug/mL
Experimental: Materials and methods: Recombinant human CSF1R-Fc or mouse CSF1R-Fc (Sino Biological) fusion protein was immobilized on 96 well microtiter plate at a concentration of 1 μg/mL in Coating Solution (SeraCare) overnight at 4° C. The wells were washed with wash solution and blocked with 1% BSA at RT. Serial dilutions of Ab/IL-10 fusion proteins were added to wells. Then 2.5 ug/mL biotinylated human CSF1-His (Biolegend) or mouse CSF1-His (Sino Biological) was added and incubated for 1 h at 37° C. After washing, Streptavidin-HRP (Jackson ImmunoResearch) was applied to wells at RT for 1 h incubation. After washing, the wells were developed with TMB substrate for 5-10 min at RT and the stopped with 1 N HCl. Thereafter absorbance was measured at 450 nm and 650 nm. The IC₅₀ values were calculated through GraphPad Prism7.

[6] = molecular target: T4, cynomolgus CSF1R expressed on 293F cells (cynomolgus monkey, UniProt P07333 20-972 (human entry)); assay: flow cytometry titration on 293F cells overexpressing cynomolgus CSF1R, anti-human IgG-Alexa Fluor 647
T4 construct: also called cynoCSF1R
T4 chain: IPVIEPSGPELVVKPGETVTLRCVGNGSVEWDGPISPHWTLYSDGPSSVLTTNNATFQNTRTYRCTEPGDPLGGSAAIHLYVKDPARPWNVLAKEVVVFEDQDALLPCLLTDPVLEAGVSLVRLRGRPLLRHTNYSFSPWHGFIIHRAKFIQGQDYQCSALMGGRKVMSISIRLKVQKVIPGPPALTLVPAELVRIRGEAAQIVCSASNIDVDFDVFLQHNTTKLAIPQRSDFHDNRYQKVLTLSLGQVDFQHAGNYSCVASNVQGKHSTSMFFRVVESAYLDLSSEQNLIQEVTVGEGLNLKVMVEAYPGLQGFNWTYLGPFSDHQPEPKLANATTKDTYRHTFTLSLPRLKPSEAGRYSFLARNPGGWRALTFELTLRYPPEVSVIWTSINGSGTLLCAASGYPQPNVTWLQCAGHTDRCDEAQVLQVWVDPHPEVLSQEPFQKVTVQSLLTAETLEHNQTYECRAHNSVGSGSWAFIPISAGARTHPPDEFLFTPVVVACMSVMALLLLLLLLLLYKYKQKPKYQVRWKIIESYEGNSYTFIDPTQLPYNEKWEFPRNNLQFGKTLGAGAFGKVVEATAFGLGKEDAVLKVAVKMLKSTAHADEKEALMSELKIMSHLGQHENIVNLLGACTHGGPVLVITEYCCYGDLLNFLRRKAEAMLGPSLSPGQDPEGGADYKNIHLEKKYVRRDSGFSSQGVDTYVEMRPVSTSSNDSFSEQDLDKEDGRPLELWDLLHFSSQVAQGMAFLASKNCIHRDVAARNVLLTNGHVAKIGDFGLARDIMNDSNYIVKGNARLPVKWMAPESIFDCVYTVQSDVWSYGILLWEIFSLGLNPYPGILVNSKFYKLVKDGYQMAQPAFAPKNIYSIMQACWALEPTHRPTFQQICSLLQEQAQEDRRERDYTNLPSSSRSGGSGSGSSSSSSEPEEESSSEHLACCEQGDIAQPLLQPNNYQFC
Source text: Materials and methods: The gene segments encoding full-length human CSF1R or cynomolgus CSF1R were obtained using Thermo gene synthesis service and cloned in a mammalian expression vector pCDNA3.4. […] After washing with FACS buffer (2%FBS in PBS), the cells were stained with anti-human IgG-Alexa Fluor 647 and analyzed by Attune N×T Flow Cytometer (Thermo Scientific).

- IC50 (M), inhibition of AML5 cell proliferation (CSF1-dependent) [1]: 1.87e-09 M
- EC50 [3]: 0.27 nM
- EC50 [4]: 2.75 nM
- IC50 [5]: 0.481 nM
- binding result [6]: binds
B1: chimeric anti-CSF1R/IL10 fusion protein 6M6/IL10 (antibody, human IgG1, kappa)
heavy: DVQLQQSGTVLARPGASVKMSCKASGYTFTSYWIHWVKQRPGQGLEWIGAIYPGNRDTNYNQKFKGKAKLTTVTSASTAYMELSSLTNEDSAVYYCTGAFAGYYDWYFDVWGAGTTVTVSS[letters of human IgG1 constant region left out]LGGGGSGGGGSGGGGSPGQGTQSENSCTHFPGNLPNMLRDLRDAFSRVKTFFQMKDQLDNLLLKESLLEDFKGYLGCQALSEMIQFYLEEVMPQAENQDPDIKAHVNSLGENLKTLRLRLRRCHRFLPCENKSKAVEQVKNAFNKLQEKGIYKAMSEFDIFINYIEAYMTMKIRN
light: DIVLTQSPASLAVSLGQRATISCKASQGVDYAGDSYMNWYQQKPGQPPKLLIYVASDLDSGIPARFSGSGSGTNFTLNIHPVEEEDAATYYCQQSYEDPRTFGGGTTLEIQRTVAAPSVFIFPPSDEQLKSGTASVVCLLNNFYPREAKVQWKVDNALQSGNSQESVTEQDSKDSTYSLSSTLTLSKADYEKHKVYACEVTHQGLSSPVTKSFNRGEC
notes: Antibody-cytokine fusion: human IL10 fused by a linker to the C-terminus of the heavy chain; also called 6M6/1L10
- IC50 (M), inhibition of CD14+ monocyte survival (CSF1-dependent) [2]: 2.82e-10 M
- IC50 (M), inhibition of macrophage survival (CSF1-dependent) [2]: 1.89e-10 M

Source: US20210403583A1 (ELIXIRON IMMUNOTHERAPEUTICS HONG KONG, published 2021)
